Molecular target: T1, F-actin (in PaExoY-F-actin complex) (Oryctolagus cuniculus, UniProt P68135)
T1 construct: gene ACTA1
Details: bound with Pi in actin nucleotide site; modelled from PDB 7AD9

Compound: Nc1ncnc2c1ncn2[C@@H]1O[C@H](COP(=O)(O)OP(=O)(O)O)[C@@H](O)[C@H]1O [ADP-Pi]
- cryo-EM structure, 3.2 Å: F-actin, ADP-Pi and Phalloidin were adapted from PDB 7AD9

— paper PMC8595890, “Mechanism of actin-dependent activation of nucleotidyl cyclase toxins from bacterial human pathogens” (Nature Communications, 2021)
